The supplement of paper PMC4604168 (melanoma cell lines)
Some of the results follow. Many values rest on one well or one pass, so single values are uncertain.

How the values were obtained:
Assay in all cases: cell count relative to DMSO control; melanoma cells; higher = more viable cells
Conditions in all cases: library dose: low library concentration; 72 h
[1] = test system: WM115
[2] = test system: WM1716
[3] = test system: WM1745
[4] = test system: WM3526
[5] = test system: WM3619
[6] = test system: WM451Lu
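Note: cell number obtained by counting DAPI-stained nuclei in high-throughput microscope images with image analysis software, screen run in 1,536-well plates.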

SMILES: Cc1ccc(Nc2nccc(N(C)c3ccc4c(C)n(C)nc4c3)n2)cc1S(N)(=O)=O [Pazopanib] + COc1cc(N2CCC(N3CCN(C)CC3)CC2)ccc1Nc1ncc(Cl)c(Nc2ccccc2S(=O)(=O)C(C)C)n1 [NVP-TAE684] (first compound 0.4 µM, partner dose 0.08 µM)
- cell count [1]: 83.2%
- cell count [2]: 79.9%
- cell count [3]: 74.5%
- cell count [4]: 72.9%
- cell count [5]: 68.7%
- cell count [6]: 89.3%

SMILES: CC1(C)CCC(c2ccc(Cl)cc2)=C(CN2CCN(c3ccc(C(=O)NS(=O)(=O)c4ccc(N[C@H](CCN5CCOCC5)CSc5ccccc5)c(S(=O)(=O)C(F)(F)F)c4)cc3)CC2)C1 + C[C@@H]1CCN(C(=O)CC#N)C[C@@H]1N(C)c1ncnc2[nH]ccc12 [CP690550] (first compound 0.4 µM, partner dose 1 µM)
- cell count [1]: 89.4%
- cell count [2]: 64.3%
- cell count [3]: 16.2%
- cell count [4]: 73.3%
- cell count [5]: 71.1%
- cell count [6]: 81.7%

SMILES: Cc1ccc(Nc2nccc(N(C)c3ccc4c(C)n(C)nc4c3)n2)cc1S(N)(=O)=O [Pazopanib] + Nc1cccc2c1CN(C1CCC(=O)NC1=O)C2=O [lenalidomide] (first compound 0.4 µM, partner dose 1 µM)
- cell count [1]: 94.1%
- cell count [2]: 82.1%
- cell count [3]: 84.6%
- cell count [4]: 88.6%
- cell count [5]: 110%
- cell count [6]: 104%

SMILES: O=C(/C=C/c1cccnc1)NCCCCC1CCN(C(=O)c2ccccc2)CC1 + C[C@@H]1CCN(C(=O)CC#N)C[C@@H]1N(C)c1ncnc2[nH]ccc12 [CP690550] (first compound 0.01 µM, partner dose 1 µM)
- cell count [1]: 88.5%
- cell count [2]: 86%
- cell count [3]: 88%
- cell count [4]: 80.2%
- cell count [5]: 74.4%
- cell count [6]: 101%
